What all share (experiment): two-hybrid; mating-based split-ubiquitin system (mbSUS) in budding yeast; bait Cub-PLV fusions and prey NubG fusions in mated diploid cells; growth on SC-Trp,-Leu,-Ade,-His,-Ura,-Met plates with 0, 0.075, 0.150 or 0.300 mM methionine, 2-9 days at 30°C
Experiment [1] has as its target T1, DAF-4, the type II receptor (C. elegans) (UniProt P50488).
T1 sequence: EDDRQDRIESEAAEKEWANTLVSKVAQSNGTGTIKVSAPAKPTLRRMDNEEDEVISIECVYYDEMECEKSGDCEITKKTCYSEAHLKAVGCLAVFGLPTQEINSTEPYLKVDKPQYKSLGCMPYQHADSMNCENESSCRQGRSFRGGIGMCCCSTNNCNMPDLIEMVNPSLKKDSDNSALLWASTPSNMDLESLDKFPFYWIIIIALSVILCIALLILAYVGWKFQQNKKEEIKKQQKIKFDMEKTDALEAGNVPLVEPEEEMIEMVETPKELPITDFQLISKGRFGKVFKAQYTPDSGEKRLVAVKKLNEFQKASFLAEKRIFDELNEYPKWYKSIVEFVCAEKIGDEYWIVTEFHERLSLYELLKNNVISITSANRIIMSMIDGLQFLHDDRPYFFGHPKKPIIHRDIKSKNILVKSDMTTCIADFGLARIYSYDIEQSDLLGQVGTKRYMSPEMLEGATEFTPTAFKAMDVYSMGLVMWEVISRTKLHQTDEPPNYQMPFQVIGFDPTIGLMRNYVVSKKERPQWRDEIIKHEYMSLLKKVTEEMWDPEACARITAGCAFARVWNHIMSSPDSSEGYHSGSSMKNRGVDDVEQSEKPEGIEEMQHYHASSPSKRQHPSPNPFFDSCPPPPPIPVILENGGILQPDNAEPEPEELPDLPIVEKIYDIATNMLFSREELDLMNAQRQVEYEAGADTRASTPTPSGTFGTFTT

Chains of the proteins cited; added tags and fusions are not shown.
UniProt Q39128: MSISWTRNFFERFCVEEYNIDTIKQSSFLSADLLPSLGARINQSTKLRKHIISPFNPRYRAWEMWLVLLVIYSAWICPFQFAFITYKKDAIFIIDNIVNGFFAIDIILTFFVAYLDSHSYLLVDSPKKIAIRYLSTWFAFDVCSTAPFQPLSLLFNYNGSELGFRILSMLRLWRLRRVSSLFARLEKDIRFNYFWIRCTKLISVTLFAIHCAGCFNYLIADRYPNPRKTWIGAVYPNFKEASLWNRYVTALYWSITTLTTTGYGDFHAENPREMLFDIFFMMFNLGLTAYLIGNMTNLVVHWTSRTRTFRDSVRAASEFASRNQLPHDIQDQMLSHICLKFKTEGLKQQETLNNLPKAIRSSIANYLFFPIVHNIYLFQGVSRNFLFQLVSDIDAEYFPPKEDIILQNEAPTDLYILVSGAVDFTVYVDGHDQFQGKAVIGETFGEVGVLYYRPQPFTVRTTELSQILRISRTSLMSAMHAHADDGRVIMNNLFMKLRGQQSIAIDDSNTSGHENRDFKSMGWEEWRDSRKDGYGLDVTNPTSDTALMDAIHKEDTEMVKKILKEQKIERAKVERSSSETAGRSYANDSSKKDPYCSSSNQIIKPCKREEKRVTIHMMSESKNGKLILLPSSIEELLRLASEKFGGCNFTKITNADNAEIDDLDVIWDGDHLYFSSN

The target of experiment [2] is T2, tetraspanin-21 (TSP-21) (C. elegans) (UniProt Q5WRN1).
T2 sequence: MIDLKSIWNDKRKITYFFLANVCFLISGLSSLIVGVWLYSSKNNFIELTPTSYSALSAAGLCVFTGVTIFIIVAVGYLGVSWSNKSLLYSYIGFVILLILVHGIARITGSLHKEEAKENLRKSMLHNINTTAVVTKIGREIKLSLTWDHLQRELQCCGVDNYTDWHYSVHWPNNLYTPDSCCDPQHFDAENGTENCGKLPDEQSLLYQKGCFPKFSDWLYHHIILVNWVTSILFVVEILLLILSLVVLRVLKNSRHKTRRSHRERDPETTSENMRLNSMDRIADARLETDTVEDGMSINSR

For experiment [3], the target named is T3, SMA-6, the type I receptor of the Sma/Mab pathway (C. elegans) (UniProt Q09488).
T3 sequence: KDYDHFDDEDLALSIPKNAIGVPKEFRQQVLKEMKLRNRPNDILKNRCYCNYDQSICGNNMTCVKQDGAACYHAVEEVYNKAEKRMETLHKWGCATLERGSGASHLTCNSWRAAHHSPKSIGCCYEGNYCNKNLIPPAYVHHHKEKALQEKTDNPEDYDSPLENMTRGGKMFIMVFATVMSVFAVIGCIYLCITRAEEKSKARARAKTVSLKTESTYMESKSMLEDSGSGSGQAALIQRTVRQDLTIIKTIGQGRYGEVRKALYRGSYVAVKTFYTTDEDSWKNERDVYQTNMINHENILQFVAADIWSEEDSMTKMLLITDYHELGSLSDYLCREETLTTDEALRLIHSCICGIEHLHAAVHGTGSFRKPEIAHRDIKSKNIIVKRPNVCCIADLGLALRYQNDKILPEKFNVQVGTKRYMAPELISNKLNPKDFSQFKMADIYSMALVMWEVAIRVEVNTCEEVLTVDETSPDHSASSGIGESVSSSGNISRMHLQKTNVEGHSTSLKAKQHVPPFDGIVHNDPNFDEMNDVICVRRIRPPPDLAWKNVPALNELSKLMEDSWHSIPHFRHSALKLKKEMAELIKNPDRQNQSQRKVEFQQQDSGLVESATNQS

For experiment [4], the target named is plant potassium channel KAT1 (UniProt Q39128).
Experiment [5] deals with T1, DAF-4, the type II receptor (C. elegans). The source holds these as a separate data set.
Experiment [6] addresses T2, tetraspanin-21 (TSP-21) (C. elegans). The source holds these as a separate data set.
In experiment [7] the target is T3, SMA-6, the type I receptor of the Sma/Mab pathway (C. elegans). The source holds these as a separate data set.
Experiment [8] deals with plant potassium channel KAT1 (UniProt Q39128). The source holds these as a separate data set.

This is an account of results in paper PMC4433240.

Like-named read-outs stand apart in the source and are kept apart here. Results are given in words; binding and its absence hold for the method and conditions named. Some entries that bind do so weakly or less than the wild type.

On to “plant potassium channel KAT1 (from UniProt Q39128 1-677)”, for which the binding result in experiment [1] is listed as “no binding”; in experiment [2] it was “no binding”; in experiment [3], “no binding”; in experiment [4], “binds”.

B1: TSP-14 (protein, UniProt H2L006 1-451)
chain: MPHRAPRRFMKTAPGACDWEQCLLMGSGEPTRARAVVSSSHKQRKPRQEISACLKWLVFLLNSIVFLVGVGILALGVYLFIKDFREVKLVDIILNPAILISIFGFSICVVSFFGFMGALRDNIFLLKCFAACVFLSYILVVAVTLVFFTLFYTDTTEGLSANWLLLYAVKNYHTNRNLAEIMDALQENLECCGVSSIAQGYRDWNMSYQFNCTNSNPQPEKCGVPFSCCRKSVISEAAGSSNPLLPAMRSLECWQNALTKRPGDLEHDIYTRGCLQPLRTLFESHAVHVGAFVALLIVPVCISVCLTNILAKQVDHQRYLLEREARRNDRRRKRDHNRRDQLNSLDLLEEGKFNNASANATRPRPPDIPPPLPPIEHVPRKKSRNASSSPTRKPKSAGVENAAARRKRTATTTRTPPAAAGPAPTPQATTTNRTHQWVLQQTDLVPQKSKS
Take B1: the binding entry in experiment [5] is listed as “binds weakly”; in experiment [6], “binds”; in experiment [7], “binds”; in experiment [8] it was “no binding”.

B2: TSP-12 (protein, UniProt Q22495 1-308)
chain: MANRRQPVQHRAQQRVYRQSQIRYAPGAGGESEISCCVKYSVFSFNVIFFLLGFGLLLFGVWAQIEKNTFVNMLSKASKLYLDPTWPLLIVGFLTFIIGFSGCVGSLRENTSFLTFYSTLLGLLLIAEFSAGVFAYACRDQLDNYIRNLLNDVVVGYRDDPDLQLLIDSMQETWMCCGINGADDWDRNTYFSIEAREVASPEAGGVPFSCCINSSKLEFKNYFCGHGVRLKPESHMAAHLAAQRVMAHTASIYTEGCLPKLQLWLNNNMLLVAVSMVIIAIIQVLGICFAQNLKSDILAQRAKWYYTH
Turning to B2, the results for the binding entry in experiment [6], in experiment [7] and in experiment [8] were “binds”, “binds” and “no binding”, respectively.

B3: C. elegans ABC transporter HMT-1 (protein, UniProt G5EFD4 1-801)
chain: MGFSPFLDECRAEGLWPIGPSCNKIISFGVYTFFIVVNFIVLCIPNSNSANNNYRRMTDDDASSTSKLTISKILSICTIFAVICQSIFYFCFTFYFHPYTHLLLAFCVSKLFFWILSLCSFSKWRNQPSTPISLAFAFSAALLIHCIPLTDWKKYFEPTSKNRGDLTFYIIELALVTVVFFFTIVTGLFNFSGCSSRESAWNNLSKKVVTVAPYIWPTKSISLQLRVVFCLFLLIIGRLINVSLPILSKWIVDELATPDTFQYSLLFLATFLKFLQGNGAMGGFLNTVRTYLWIPIQQYTTRELEVELFKHLHSLSLRWHLSRKTGQVLRVMDRGTSSVNNILNYILFNVVPTIADIVIAVIFFFSAFNAYFGLIVFGTMALYLTVTISITEWRTQYIREANEKDNATSAIATDSLINYETVKYYGNEEFEVNRFKNAIESYQVTEWKTQASLAFLNCLQNAIIGIGMIGGSVFVVYMIVHEKTLTVGDYVLFTTYLLQLYTPLNFFGTIYRVIQKAFVDMENMFDLMNDEVEVKDLPHALPYTDPRGTISVKNLTFEYNTGLPVIKNISFEIGNGQTVALVGSSGSGKSTLIRLLFRLFESTEGSIEFDGIDVRNYTMHSLRQQIGIVPQDTVLFNDTIMYNIRFGRPDASDEEVIEAAKAAMIHEKITSLPEGYATMVGERGLKLSGGEKQRVAIARTILKKPQFIFLDEATSALDTPTERAIQKCLEKLCKSRTGVVVAHRLSTVVNADLILVLDKGIILERGNHKELLAQQGTYASMWEAQIAEQRAKSIELGEELP
Take B3: the binding result in experiment [6] is given as “no binding”.

B4: tetraspanin-21 (TSP-21) (protein, UniProt Q5WRN1 1-301)
chain: MIDLKSIWNDKRKITYFFLANVCFLISGLSSLIVGVWLYSSKNNFIELTPTSYSALSAAGLCVFTGVTIFIIVAVGYLGVSWSNKSLLYSYIGFVILLILVHGIARITGSLHKEEAKENLRKSMLHNINTTAVVTKIGREIKLSLTWDHLQRELQCCGVDNYTDWHYSVHWPNNLYTPDSCCDPQHFDAENGTENCGKLPDEQSLLYQKGCFPKFSDWLYHHIILVNWVTSILFVVEILLLILSLVVLRVLKNSRHKTRRSHRERDPETTSENMRLNSMDRIADARLETDTVEDGMSINSR
As for B4, the binding entry was “binds” in experiment [6] and “no binding” in experiment [7].
